Laboratory results reported in patent US12221481B2, “CD19 binding molecules and uses thereof” (Novartis AG, priority 2019, dated 2025).

Columns and labels:
[1] = test system: Daudi-Luc Burkitt's lymphoma subcutaneous tumor; experiment: Daudi-Luc Burkitt's lymphoma subcutaneous tumor model, human PBMC adoptive transfer, NSG mice (Example 31); format: in vivo; conditions: for tumor regression: single IV administration; for Δ Body weight from initial (Mean ± SEM) Day 36 / Δ Tumor burden from initial (Mean) Day 36 / Regression: single dose IV; for Regression: Day 36
Description: On Day 0, Daudi-Luc cells were harvested and suspended in a 1:1 mixture of Hanks Balanced Salt Solution (HBSS) and Matrigel at a concentration of 50×10^6 cells/mL.
Tumor volume and body weights were recorded twice weekly. Tumor volume was measured by caliper.
On day 36 following Daudi-Luc implantation, 25% of animals from the Tumor+AdT control group were euthanized due to tumor volume.

Oci-Ly19 target cells = experiment: RTCC against Oci-Ly19 (Example 22); format: cell-based, human; conditions: E:T 1:1, 48 hour
Description: (§1) The purified TBMs were compared across multiple donor effector cells. Briefly, huCD19-expressing Nalm6 and Karpas422 target cells were engineered to overexpress firefly luciferase. Cells were harvested and resuspendend in RPMI medium (Invitrogen #11875-093) with 10% FBS. 5,000 target cells per well were plated in a flat-bottom 384-well plate. Human pan T effector cells were isolated via negative selection (Stemcell Technologies #17951) from two donors from cryopreserved PBMCs that were separated from a leukopak (Hemacare #PB001F-1) by Ficoll density gradient centrifugation. Purified T cells were then added to the plate to obtain a final E:T ratio of 3:1, 1:1, 1:3 or 1:5. Co-cultured cells were incubated with serial dilutions of all constructs and controls. For normalization, average maximum luminescence refers to target cells co-incubated with effector cells, but without any test construct. After an incubation of 48, 72 or 96 hr at 37° C., 5% CO2, OneGlo luciferase substrate (Promega #E6120) was added to the plate. Luminescence was measured on an Envision plate reader after a 10 minute incubation. Percent specific lysis was calculated using the following equation: Specific lysis (%)=(1−(sample luminescence/average maximum luminescence))*100
(§2) Nalm6 KO was generated from Nalm6 parental cell line by using CRISPR-CAS9 technology and was confirmed to lack hCD19 expression. Oci-Ly19, Toledo, Nalm6, Nalm6 KO and K562 target cells were engineered to overexpress firefly luciferase. RTCC assays were performed with the different cells lines according to the Materials and Methods described in Example 9, but with a final E:T ratio of 1:1 and a 48 hour incubation.

Toledo target cells = experiment: RTCC against Toledo (Example 22); format: cell-based, human; conditions: E:T 1:1, 48 hour
Description: as §1, §2

K562 target cells = experiment: RTCC against K562 lacking hCD19 (Example 22); format: cell-based; conditions: antigen-negative, E:T 1:1, 48 hour
Description: as §1
Nalm6 KO was generated from Nalm6 parental cell line by using CRISPR-CAS9 technology and was confirmed to lack hCD19 expression. […]

[2] = test system: OCI-LY-19 DLBCL subcutaneous tumor; experiment: OCI-LY-19 DLBCL subcutaneous tumor model in huCD34+ NSG mice, single dose, dose range finding (Example 30); conditions: for ΔT/ΔC: Day 24
[3] = test system: OCI-LY-19 DLBCL subcutaneous tumor
OCI-LY-19 target cells = experiment: Re-challenge RTCC assay, OCI-LY-19; format: cell-based, human; conditions: E:T 1:1, repeated target cell challenges
Description: (§3) OCI-LY-19 and Karpas422 target cells stably expressing firefly luciferase were plated in a Costar 6 well plate in T Cell Media (TCM). PBMCs previously isolated and cryopreserved from 2 Leukopak donors were thawed and Pan T cells were isolated (as described earlier). […] The plates were incubated for 4 days for OCI-LY-19 and 5 days for Karpas 422 cells. At the end of incubation, the killing of target cells was determined using the luminescence signal. The absolute T cell counts from each antibody treated condition was also determined. For the next round of rechallenge, it was ensured that the killing of target cells was equivalent across various antibody conditions. […] Additionally, a dose titration RTCC at a E:T of 1:1 and a concentration range of 2 nM-0.000001 nM was set-up using T cells from the different antibody treated conditions with a 4 day incubation used for each cell line. The killing of target cells was determined using the luminescence signal to generate dose response curves. At the end of the challenge, the above process was repeated once more for Karpas 422 and twice more for OCI-LY-19 cells.

[4] = test system: OCI-LY-19 diffuse large B-cell lymphoma (DLBCL) tumor; experiment: OCI-LY-19 DLBCL subcutaneous tumor model, human PBMC adoptive transfer, NSG mice (Example 28); conditions: for Δ Body weight from initial (Mean ± SEM) / Δ Tumor burden from initial (Mean) Day 25 / ΔT/ΔC / Regression: single dose IV; for ΔT/ΔC / Regression: Table 26, Day 25
Nalm6 target cells = experiment: RTCC against Nalm6 (Example 22); format: cell-based, human; conditions: E:T 1:1, 48 hour
Description: as §1, §2

Karpas422 target cells [5] = experiment: Re-challenge RTCC assay, Karpas 422; format: cell-based, human; conditions: E:T 1:1, repeated target cell challenges
Description: as §3

Karpas422 target cells [6] = experiment: RTCC against Karpas422, E:T 1:1, 96 hour (Examples 17, 21); format: cell-based, human; conditions: two T cell donors
Description: as §1
An RTCC assay with huCD19-expressing Karpas422 target cells was performed according to the Materials and Methods described in Example 9, but with a final E:T ratio of 1:1 and a 96 hour incubation.

B1: CD3med TSP1: NEG258-based TBM with CD3med anti-CD3 scFv and CD58 IgV CD2-binding arm (antibody)
heavy: QVQLVQSGAEVKKPGASVKVSCKASGYTFTTYWIQWVRQAPGQRLEWMGAVYPGDADTRYTQKFQGRVTLTADRSASTAYMELSSLRSEDTAVYYCGRDAGLEYYALDYWGQGTLVTVSSASTKGPSVFPLAPSSKSTSGGTAALGCLVKDYFPEPVTVSWNSGALTSGVHTFPAVLQSSGLYSLSSVVTVPSSSLGTQTYICNVNHKPSNTKVDKRVEPKSCGGGGSGGGGSEVQLVESGGGLVQPGGSLKLSCAASGFTFNTYAMNWVRQASGKGLEWVGRIRSKYNNYATYYADSVKDRFTISRDDSKNTAYLQMNSLKTEDTAVYYCVRHGNFGNSYVSWFAHWGQGTLVTVSSGGGGSGGGGSGGGGSGGGGSQAVVTQEPSLTVSPGGTVTLTCGSSTGAVTSSNYANWVQQKPGQAPRGLIGGTNKRAPWTPARFSGSLLGGKAALTLSGAQPEDEAEYYCALWYSNLWVFGGGTKLTVLGGGGSDKTHTCPPCPAPELLGGPSVFLFPPKPKDTLMISRTPEVTCVVVAVSHEDPEVKFNWYVDGVEVHNAKTKPREEQYASTYRVVSVLTVLHQDWLNGKEYKCKVSNKALAAPIEKTISKAKGQPREPQVCTLPPSREEMTKNQVSLSCAVKGFYPSDIAVEWESNGQPENNYKTTPPVLDSDGSFFLVSKLTVDKSRWQQGNVFSCSVMHEALHNHYTQKSLSLSPGK
light: EIVMTQSPATLSVSPGERATLSCRASQDVGTAVAWYQQKPGQAPRLLIYWASTRHTGIPARFSGSGSGTEFTLTISSLQSEDFAVYFCQQYANFPLYTFGQGTKLEIKRTVAAPSVFIFPPSDEQLKSGTASVVCLLNNFYPREAKVQWKVDNALQSGNSQESVTEQDSKDSTYSLSSTLTLSKADYEKHKVYACEVTHQGLSSPVTKSFNRGEC
chain: SQQIYGVVYGNVTFHVPSNVPLKEVLWKKQKDKVAELENSEFRAFSSFKNRVYLDTVSGSLTIYNLTSSDEDEYEMESPNITDTMKFFLYVLESGGGGSDKTHTCPPCPAPELLGGPSVFLFPPKPKDTLMISRTPEVTCVVVAVSHEDPEVKFNWYVDGVEVHNAKTKPREEQYASTYRVVSVLTVLHQDWLNGKEYKCKVSNKALAAPIEKTISKAKGQPREPQVYTLPPCREEMTKNQVSLWCLVKGFYPSDIAVEWESNGQPENNYKTTPPVLDSDGSFFLYSKLTVDKSRWQQGNVFSCSVMHEALHNHYTQKSLSLSPGK
With B1 the tumor regression ([1]; 0.1 mg/kg) was 13.51%, the “Δ Body weight from initial (Mean ± SEM) Day 36” value ([1]; 0.1 mg/kg) was 0.165 ± 2.561% and the “Δ Tumor burden from initial (Mean) Day 36” value ([1]; 0.1 mg/kg) was −19.77 mm^3. For the same molecule, the Regression ([1]; 0.1 mg/kg) was 13.51%, the tumor regression ([1]; 0.3 mg/kg) was 85.13% and the “Δ Body weight from initial (Mean ± SEM) Day 36” value ([1]; 0.3 mg/kg) was 3.214 ± 1.737%. For the same molecule, the “Δ Tumor burden from initial (Mean) Day 36” value ([1]; 0.3 mg/kg) was −124.57 mm^3, the Regression ([1]; 0.3 mg/kg) was 85.13% and the tumor regression ([1]; 1.0 mg/kg) was 90.86%. The “Δ Body weight from initial (Mean ± SEM) Day 36” value ([1]; 1.0 mg/kg) was 3.839 ± 1.597%, the “Δ Tumor burden from initial (Mean) Day 36” value ([1]; 1.0 mg/kg) was −132.92 mm^3 and the Regression ([1]; 1.0 mg/kg) was 90.86%. The “cytotoxic activity (specific lysis)” value (Oci-Ly19 target cells) was “showed cytotoxic activity”, the “cytotoxic activity (specific lysis)” value (Toledo target cells) was “showed cytotoxic activity” and the “cytotoxic activity (target-independent killing)” value (K562 target cells) was “minimal activity”. For the same molecule, the ΔT/ΔC ([2]; 0.01 mg/kg, single IV dose) was 100%, the “Δ Body weight from initial (Mean ± SEM) Day 24” value ([2]; 0.01 mg/kg, single dose IV) was 12.7 ± 1.8% and the “Δ Tumor burden from initial (Mean ± SEM) Day 24” value ([2]; 0.01 mg/kg, single dose IV) was 1139.3 ± 155.7 mm^3. For the same molecule, the ΔT/ΔC ([2]; 0.01 mg/kg, single dose IV) was 100%, the ΔT/ΔC ([2]; 0.03 mg/kg, single IV dose) was 90.3% and the “Δ Body weight from initial (Mean ± SEM) Day 24” value ([2]; 0.03 mg/kg, single dose IV) was 4.8 ± 3.7%. For the same molecule, the “Δ Tumor burden from initial (Mean ± SEM) Day 24” value ([2]; 0.03 mg/kg, single dose IV) was 954.8 ± 180.1 mm^3, the ΔT/ΔC ([2]; 0.03 mg/kg, single dose IV) was 90.3% and the ΔT/ΔC ([2]; 0.1 mg/kg, single IV dose) was 79.8%. For the same molecule, the “Δ Body weight from initial (Mean ± SEM) Day 24” value ([2]; 0.1 mg/kg, single dose IV) was 0.3 ± 2.5%, the “Δ Tumor burden from initial (Mean ± SEM) Day 24” value ([2]; 0.1 mg/kg, single dose IV) was 843.2 ± 196.5 mm^3 and the ΔT/ΔC ([2]; 0.1 mg/kg, single dose IV) was 79.8%. The ΔT/ΔC ([2]; 0.3 mg/kg, single IV dose) was 26.9%, the “Δ Body weight from initial (Mean ± SEM) Day 24” value ([2]; 0.3 mg/kg, single dose IV) was −3.0 ± 2.2% and the “Δ Tumor burden from initial (Mean ± SEM) Day 24” value ([2]; 0.3 mg/kg, single dose IV) was 284.0 ± 200.9 mm^3. The ΔT/ΔC ([2]; 0.3 mg/kg, single dose IV) was 26.9%, the ΔT/ΔC ([2]; 1.0 mg/kg, single IV dose) was 0.05% and the “Δ Body weight from initial (Mean ± SEM) Day 24” value ([2]; 1.0 mg/kg, single dose IV) was 3.1 ± 2.5%. The “Δ Tumor burden from initial (Mean ± SEM) Day 24” value ([2]; 1.0 mg/kg, single dose IV) was 35.5 ± 57.6 mm^3, the ΔT/ΔC ([2]; 1.0 mg/kg, single dose IV) was 0.05* % and the “treatment associated body weight loss” value ([2]; across multiple dose levels, single IV dose) was “treatment associated body weight loss”. The tumor regression ([3]; 1.0 mg/kg IV weekly, Day 24) was 64.5%, the “Δ Body weight from initial (Mean ± SEM) Day 24” value ([3]; 1.0 mg/kg, QWx3) was −11.30 ± 1.93% and the “Δ Tumor burden from initial (Mean ± SEM) Day 24” value ([3]; 1.0 mg/kg, QWx3) was −215.32 ± 38.48 mm^3. The Regression ([3]; 1.0 mg/kg, QWx3, Day 24) was 64.3* %, the “treatment associated body weight loss” value ([3]; observed following the first dose only) was “treatment associated body weight loss” and the “retention of killing ability upon repeated challenges” value (OCI-LY-19 target cells) was “next best”. The anti-tumor activity ([4]; 0.003 mg/kg, single IV administration) was “not active”, the “Δ Body weight from initial (Mean ± SEM)” value ([4]; 0.003 mg/kg) was 4.2 ± 2.1% and the “Δ Tumor burden from initial (Mean) Day 25” value ([4]; 0.003 mg/kg) was 372.94 mm^3. The anti-tumor activity ([4]; 0.01 mg/kg, single IV administration) was “not active”, the “Δ Body weight from initial (Mean ± SEM)” value ([4]; 0.01 mg/kg) was 5.7 ± 2.7% and the “Δ Tumor burden from initial (Mean) Day 25” value ([4]; 0.01 mg/kg) was 469.6988 mm^3. The “% ΔT/ΔC” value ([4]; 0.03 mg/kg, single IV administration) was 7.39%, the “Δ Body weight from initial (Mean ± SEM)” value ([4]; 0.03 mg/kg) was 2.6 ± 1.6% and the “Δ Tumor burden from initial (Mean) Day 25” value ([4]; 0.03 mg/kg) was 60.7375 mm^3. The tumor regression ([4]; 0.1 mg/kg, single IV administration) was 5.60%, the “Δ Body weight from initial (Mean ± SEM)” value ([4]; 0.1 mg/kg) was 3.3 ± 2.0% and the “Δ Tumor burden from initial (Mean) Day 25” value ([4]; 0.1 mg/kg) was −12.1488 mm^3. For the same molecule, the tumor regression ([4]; 0.3 mg/kg, single IV administration) was 36.33%, the “Δ Body weight from initial (Mean ± SEM)” value ([4]; 0.3 mg/kg) was 3.54 ± 1.4% and the “Δ Tumor burden from initial (Mean) Day 25” value ([4]; 0.3 mg/kg) was −78.7388 mm^3. The ΔT/ΔC ([4]; 0.003 mg/kg) was 45.36%, the ΔT/ΔC ([4]; 0.01 mg/kg) was 57.13% and the ΔT/ΔC ([4]; 0.03 mg/kg) was 7.39%. The Regression ([4]; 0.1 mg/kg) was 5.60* %, the Regression ([4]; 0.3 mg/kg) was 36.33* % and the “antibody associated body weight loss” value ([4]; single IV administration, 0.003-0.3 mg/kg) was “no antibody associated body weight loss”. The “cytotoxic activity (specific lysis)” value (Nalm6 target cells) was “showed cytotoxic activity”, the “retention of killing ability upon repeated challenges” value (Karpas422 target cells [5]) was “next best” and the “cytotoxic activity (specific lysis)” value (Karpas422 target cells [6]) was “show cytotoxic activity”.

Like-named read-outs stand apart in the source and are kept apart here. Marks after values point to notes of the source that are not given here.
